Laboratory results as given in the supplement of paper PMC8728848.
Some of the results follow.

What was measured:
Assay in all cases: glycan array binding signal (z-score within array); higher = stronger binding
Conditions in all cases: glycan notation: IUPAC condensed, linker removed
[1] = molecular target: Gal(b1-4)GlcNAc(b1-3)Gal(b1-4)GlcNAc(b1-2)[Gal(b1-4)GlcNAc(b1-3)Gal(b1-4)GlcNAc(b1-6)]Man(a1-6)[Gal(b1-4)GlcNAc(b1-3)Gal(b1-4)GlcNAc(b1-2)Man(a1-3)]Man(b1-4)GlcNAc(b1-4)GlcNAc
Method in brief: (§1)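 Arrays were curated from the Consortium for Functional Glycomics database, 3228 in total, and kept only where the protein sequence was available. Binding is expressed as a within-array Z-score. This score was averaged across arrays of the same protein sequence at different concentrations or buffers and across linkers, and negative values can be read as non-binding.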

[2] = molecular target: Gal(b1-4)GlcNAc(b1-3)Gal(b1-4)GlcNAc(b1-2)[Gal(b1-4)GlcNAc(b1-3)Gal(b1-4)GlcNAc(b1-6)]Man(a1-6)[Gal(b1-4)GlcNAc(b1-3)Gal(b1-4)GlcNAc(b1-2)Man(a1-3)]Man(b1-4)GlcNAc(b1-4)[Fuc(a1-6)]GlcNAc
Method in brief: as §1

[3] = molecular target: Gal(b1-4)GlcNAc(b1-3)Gal(b1-4)GlcNAc(b1-3)Gal(b1-4)GlcNAc
Method in brief: as §1

[4] = molecular target: Gal(b1-4)GlcNAc(b1-3)Gal(b1-4)GlcNAc(b1-3)Gal(b1-4)GlcNAc(b1-2)Man(a1-3)[Gal(b1-4)GlcNAc(b1-3)Gal(b1-4)GlcNAc(b1-3)Gal(b1-4)GlcNAc(b1-2)Man(a1-6)]Man(b1-4)GlcNAc(b1-4)GlcNAc
Method in brief: as §1

[5] = molecular target: Gal(b1-4)GlcNAc(b1-3)Gal(b1-4)GlcNAc(b1-3)Gal(b1-4)GlcNAc(b1-2)Man(a1-3)[Gal(b1-4)GlcNAc(b1-3)Gal(b1-4)GlcNAc(b1-3)Gal(b1-4)GlcNAc(b1-2)Man(a1-6)]Man(b1-4)GlcNAc(b1-4)[Fuc(a1-6)]GlcNAc
Method in brief: as §1

[6] = molecular target: Gal(b1-4)GlcNAc(b1-3)Gal(b1-4)GlcNAc(b1-3)Gal(b1-4)GlcNAc(b1-2)[Gal(b1-4)GlcNAc(b1-3)Gal(b1-4)GlcNAc(b1-3)Gal(b1-4)GlcNAc(b1-6)]Man(a1-6)[Gal(b1-4)GlcNAc(b1-3)Gal(b1-4)GlcNAc(b1-3)Gal(b1-4)GlcNAc(b1-2)Man(a1-3)]Man(b1-4)GlcNAc(b1-4)[Fuc(a1-6)]GlcNAc
Method in brief: as §1

[7] = molecular target: Gal(b1-4)GlcNAc(b1-3)Gal(b1-4)GlcNAc(b1-3)Gal(b1-4)GlcNAc(b1-3)Gal(b1-4)GlcNAc(b1-2)Man(a1-3)[Gal(b1-4)GlcNAc(b1-3)Gal(b1-4)GlcNAc(b1-3)Gal(b1-4)GlcNAc(b1-3)Gal(b1-4)GlcNAc(b1-2)Man(a1-6)]Man(b1-4)GlcNAc(b1-4)GlcNAc
Method in brief: as §1

[8] = molecular target: Gal(b1-4)GlcNAc(b1-3)Gal(b1-4)GlcNAc(b1-3)Gal(b1-4)GlcNAc(b1-3)Gal(b1-4)GlcNAc(b1-2)Man(a1-3)[Gal(b1-4)GlcNAc(b1-3)Gal(b1-4)GlcNAc(b1-3)Gal(b1-4)GlcNAc(b1-3)Gal(b1-4)GlcNAc(b1-2)Man(a1-6)]Man(b1-4)GlcNAc(b1-4)[Fuc(a1-6)]GlcNAc
Method in brief: as §1

[9] = molecular target: Gal(b1-4)GlcNAc(b1-3)Gal(b1-4)GlcNAc(b1-3)Gal(b1-4)GlcNAc(b1-3)Gal(b1-4)GlcNAc(b1-2)[Gal(b1-4)GlcNAc(b1-3)Gal(b1-4)GlcNAc(b1-3)Gal(b1-4)GlcNAc(b1-3)Gal(b1-4)GlcNAc(b1-6)]Man(a1-6)[Gal(b1-4)GlcNAc(b1-3)Gal(b1-4)GlcNAc(b1-3)Gal(b1-4)GlcNAc(b1-3)Gal(b1-4)GlcNAc(b1-2)Man(a1-3)]Man(b1-4)GlcNAc(b1-4)[Fuc(a1-6)]GlcNAc
Method in brief: as §1

[10] = molecular target: Gal(b1-4)GlcNAc(b1-3)Gal(b1-4)GlcNAc(b1-3)Gal(b1-4)GlcNAc(b1-3)Gal(b1-4)GlcNAc(b1-3)Gal(b1-4)GlcNAc(b1-2)Man(a1-3)[Gal(b1-4)GlcNAc(b1-3)Gal(b1-4)GlcNAc(b1-3)Gal(b1-4)GlcNAc(b1-3)Gal(b1-4)GlcNAc(b1-3)Gal(b1-4)GlcNAc(b1-2)Man(a1-6)]Man(b1-4)GlcNAc(b1-4)GlcNAc
Method in brief: as §1

[11] = molecular target: Gal(b1-4)GlcNAc(b1-3)Gal(b1-4)GlcNAc(b1-3)Gal(b1-4)GlcNAc(b1-3)Gal(b1-4)GlcNAc(b1-3)Gal(b1-4)GlcNAc(b1-2)Man(a1-3)[Gal(b1-4)GlcNAc(b1-3)Gal(b1-4)GlcNAc(b1-3)Gal(b1-4)GlcNAc(b1-3)Gal(b1-4)GlcNAc(b1-3)Gal(b1-4)GlcNAc(b1-2)Man(a1-6)]Man(b1-4)GlcNAc(b1-4)[Fuc(a1-6)]GlcNAc
Method in brief: as §1

[12] = molecular target: Gal(b1-4)GlcNAc(b1-3)Gal(b1-4)GlcNAc(b1-3)Gal(b1-4)GlcNAc(b1-3)Gal(b1-4)GlcNAc(b1-3)Gal(b1-4)GlcNAc(b1-2)[Gal(b1-4)GlcNAc(b1-3)Gal(b1-4)GlcNAc(b1-3)Gal(b1-4)GlcNAc(b1-3)Gal(b1-4)GlcNAc(b1-3)Gal(b1-4)GlcNAc(b1-6)]Man(a1-6)[Gal(b1-4)GlcNAc(b1-3)Gal(b1-4)GlcNAc(b1-3)Gal(b1-4)GlcNAc(b1-3)Gal(b1-4)GlcNAc(b1-3)Gal(b1-4)GlcNAc(b1-2)Man(a1-3)]Man(b1-4)GlcNAc(b1-4)[Fuc(a1-6)]GlcNAc
Method in brief: as §1

[13] = molecular target: Gal(b1-4)GlcNAc(b1-3)Gal(b1-4)GlcNAc(b1-3)Gal(b1-4)GlcNAc(b1-3)Gal(b1-4)GlcNAc(b1-3)Gal(b1-4)GlcNAc(b1-3)Gal(b1-4)GlcNAc(b1-2)Man(a1-3)[Gal(b1-4)GlcNAc(b1-3)Gal(b1-4)GlcNAc(b1-3)Gal(b1-4)GlcNAc(b1-3)Gal(b1-4)GlcNAc(b1-3)Gal(b1-4)GlcNAc(b1-3)Gal(b1-4)GlcNAc(b1-2)Man(a1-6)]Man(b1-4)GlcNAc(b1-4)GlcNAc
Method in brief: as §1

[14] = molecular target: Gal(b1-4)GlcNAc(b1-3)Gal(b1-4)GlcNAc(b1-3)GalNAc
Method in brief: as §1

[15] = molecular target: Gal(b1-4)GlcNAc(b1-3)Gal(b1-4)GlcNAc(b1-3)[Gal(b1-4)GlcNAc(b1-3)Gal(b1-4)GlcNAc(b1-6)]GalNAc
Method in brief: as §1

[16] = molecular target: Gal(b1-4)GlcNAc(b1-3)Gal(b1-4)GlcNAc(b1-6)[Gal(b1-3)]GalNAc
Method in brief: as §1

[17] = molecular target: Gal(b1-4)GlcNAc(b1-3)Gal(b1-4)[Fuc(a1-3)]GlcNAc(b1-3)Gal(b1-4)[Fuc(a1-3)]GlcNAc
Method in brief: as §1

[18] = molecular target: Gal(b1-4)GlcNAc(b1-3)GalNAc
Method in brief: as §1

[19] = molecular target: Gal(b1-4)GlcNAc(b1-3)[Fuc(a1-3)GlcNAc(b1-6)]Gal(b1-4)Glc
Method in brief: as §1

[20] = molecular target: Gal(b1-4)GlcNAc(b1-3)[Gal(b1-4)GlcNAc(b1-6)]Gal(b1-4)GlcNAc
Method in brief: as §1

[21] = molecular target: Gal(b1-4)GlcNAc(b1-3)[GlcNAc(b1-6)]Gal(b1-4)GlcNAc
Method in brief: as §1

[22] = molecular target: Gal(b1-4)GlcNAc(b1-6)Gal(b1-4)GlcNAc
Method in brief: as §1

[23] = molecular target: Gal(b1-4)GlcNAc(b1-6)GalNAc
Method in brief: as §1

[24] = molecular target: Gal(b1-4)GlcNAc(b1-6)[Gal(b1-3)]GalNAc
Method in brief: as §1

[25] = molecular target: Gal(b1-4)GlcNAc(b1-6)[Gal(b1-4)GlcNAc(b1-3)]GalNAc
Method in brief: as §1

Gal(b1-4)GlcNAc6P = molecular target: Gal(b1-4)GlcNAc6P
Method in brief: as §1

Gal(b1-6)Gal = molecular target: Gal(b1-6)Gal
Method in brief: as §1

Gal3S(b1-3)GalNAc = molecular target: Gal3S(b1-3)GalNAc
Method in brief: as §1

Gal3S(b1-3)GlcNAc = molecular target: Gal3S(b1-3)GlcNAc
Method in brief: as §1

[26] = molecular target: Gal3S(b1-3)[Fuc(a1-4)]GlcNAc
Method in brief: as §1

Gal3S(b1-4)Glc = molecular target: Gal3S(b1-4)Glc
Method in brief: as §1

Gal3S(b1-4)Glc6S = molecular target: Gal3S(b1-4)Glc6S
Method in brief: as §1

Gal3S(b1-4)GlcNAc = molecular target: Gal3S(b1-4)GlcNAc
Method in brief: as §1

[27] = molecular target: Gal3S(b1-4)[Fuc(a1-3)]Glc6S
Method in brief: as §1

[28] = molecular target: Gal3S(b1-4)[Fuc(a1-3)]GlcNAc
Method in brief: as §1

[29] = molecular target: Gal3S(b1-4)[Fuc(a1-3)]GlcNAc6S
Method in brief: as §1

Gal3S4S(b1-4)GlcNAc = molecular target: Gal3S4S(b1-4)GlcNAc
Method in brief: as §1

Gal3S6S(b1-4)GlcNAc = molecular target: Gal3S6S(b1-4)GlcNAc
Method in brief: as §1

Gal3S6S(b1-4)GlcNAc6S = molecular target: Gal3S6S(b1-4)GlcNAc6S
Method in brief: as §1

Gal4S(b1-4)GlcNAc = molecular target: Gal4S(b1-4)GlcNAc
Method in brief: as §1

Gal4S6S(b1-4)GlcNAc = molecular target: Gal4S6S(b1-4)GlcNAc
Method in brief: as §1

Gal6P(b1-4)GlcNAc = molecular target: Gal6P(b1-4)GlcNAc
Method in brief: as §1

Gal6S(b1-3)GlcNAc = molecular target: Gal6S(b1-3)GlcNAc
Method in brief: as §1

Gal6S(b1-3)GlcNAc6S = molecular target: Gal6S(b1-3)GlcNAc6S
Method in brief: as §1

Gal6S(b1-4)Glc = molecular target: Gal6S(b1-4)Glc
Method in brief: as §1

B1: Mg3lysM (Mycosphaerella graminicola) (protein)
chain: APQNPPTSCSAAPQPTGTGSPGTVCGSTTFTNYTVKAGDTLGAIAKQYNSGVCDIAKVNGIDNPDYIKPDQVLSIPANCVTPDNTSCVKPVPVITNTCVLGVGSTYTVKSGDSFSAIATSFNITLASLEARNPQIPNYDLIFPGQVINTPLCPNSVCDSIGTYVIESGDIFYNLAQSNNVTVGQLESLNVNVNVTDIHPGDIIILPHNCHNITASA
glycan array binding signal (z-score) [1]: -0.074
glycan array binding signal (z-score) [2]: 0.04
glycan array binding signal (z-score) [3]: -0.08
glycan array binding signal (z-score) [4]: -0.071
glycan array binding signal (z-score) [5]: -0.107
glycan array binding signal (z-score) [6]: -0.002
glycan array binding signal (z-score) [7]: 0.039
glycan array binding signal (z-score) [8]: -0.04
glycan array binding signal (z-score) [9]: 0.03
glycan array binding signal (z-score) [10]: -0.014
glycan array binding signal (z-score) [11]: 0.009
glycan array binding signal (z-score) [12]: 0.14
glycan array binding signal (z-score) [13]: 0.052
glycan array binding signal (z-score) [14]: -0.097
glycan array binding signal (z-score) [15]: -0.081
glycan array binding signal (z-score) [16]: -0.078
glycan array binding signal (z-score) [17]: -0.028
glycan array binding signal (z-score) [18]: -0.079
glycan array binding signal (z-score) [19]: -0.173
glycan array binding signal (z-score) [20]: -0.053
glycan array binding signal (z-score) [21]: -0.112
glycan array binding signal (z-score) [22]: 0.051
glycan array binding signal (z-score) [23]: -0.073
glycan array binding signal (z-score) [24]: -0.01
glycan array binding signal (z-score) [25]: -0.106
glycan array binding signal (z-score) (Gal(b1-4)GlcNAc6P): 0.098
glycan array binding signal (z-score) (Gal(b1-6)Gal): -0.068
glycan array binding signal (z-score) (Gal3S(b1-3)GalNAc): -0.103
glycan array binding signal (z-score) (Gal3S(b1-3)GlcNAc): -0.075
glycan array binding signal (z-score) [26]: 0.098
glycan array binding signal (z-score) (Gal3S(b1-4)Glc): -0.053
glycan array binding signal (z-score) (Gal3S(b1-4)Glc6S): -0.101
glycan array binding signal (z-score) (Gal3S(b1-4)GlcNAc): -0.031
glycan array binding signal (z-score) [27]: 0.053
glycan array binding signal (z-score) [28]: 0.046
glycan array binding signal (z-score) [29]: -0.138
glycan array binding signal (z-score) (Gal3S4S(b1-4)GlcNAc): -0.086
glycan array binding signal (z-score) (Gal3S6S(b1-4)GlcNAc): -0.048
glycan array binding signal (z-score) (Gal3S6S(b1-4)GlcNAc6S): 0.004
glycan array binding signal (z-score) (Gal4S(b1-4)GlcNAc): -0.073
glycan array binding signal (z-score) (Gal4S6S(b1-4)GlcNAc): -0.091
glycan array binding signal (z-score) (Gal6P(b1-4)GlcNAc): -0.143
glycan array binding signal (z-score) (Gal6S(b1-3)GlcNAc): -0.127
glycan array binding signal (z-score) (Gal6S(b1-3)GlcNAc6S): -0.179
glycan array binding signal (z-score) (Gal6S(b1-4)Glc): -0.027
